Results reported in the supplement of paper PMC3334620.
Whole data set: some 33,000 sequences, median “E-score (-0.5 to 0.5)” near -0.012, cut for the highest 2% near 0.27. Some of the results follow.

Molecular target: T1, Vhr1 (UniProt P40522)
T1 sequence: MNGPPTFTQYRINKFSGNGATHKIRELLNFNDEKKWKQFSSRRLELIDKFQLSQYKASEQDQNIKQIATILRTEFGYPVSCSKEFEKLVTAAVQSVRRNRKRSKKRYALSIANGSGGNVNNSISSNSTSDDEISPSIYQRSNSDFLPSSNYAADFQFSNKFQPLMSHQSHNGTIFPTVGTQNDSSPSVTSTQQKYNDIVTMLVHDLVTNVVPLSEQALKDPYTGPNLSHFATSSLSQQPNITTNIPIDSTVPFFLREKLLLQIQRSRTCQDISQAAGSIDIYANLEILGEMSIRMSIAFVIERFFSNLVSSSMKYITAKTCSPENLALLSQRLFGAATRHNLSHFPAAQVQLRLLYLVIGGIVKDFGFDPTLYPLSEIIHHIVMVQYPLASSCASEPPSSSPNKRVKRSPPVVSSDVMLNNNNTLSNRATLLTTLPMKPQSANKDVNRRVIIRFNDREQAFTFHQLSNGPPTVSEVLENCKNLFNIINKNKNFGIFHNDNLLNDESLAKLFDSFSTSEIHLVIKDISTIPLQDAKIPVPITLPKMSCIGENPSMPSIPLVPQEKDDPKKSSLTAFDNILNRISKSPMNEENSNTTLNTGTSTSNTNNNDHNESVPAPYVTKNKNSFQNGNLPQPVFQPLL
Experiment: PBM E-score (8-mer binding enrichment) (E-score (-0.5 to 0.5)); higher = stronger / more preferred TF binding; most listed sequences are background and not binding sites
Conditions: protein concentration: 200 nM; construct: GST-full length
How it was run: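 PURExpress in vitro transcription/translation supplied GST-tagged yeast transcription factors, either full-length or DNA-binding domain. Applied at about 100-200 nM to universal all-10-mer Agilent arrays double-stranded by primer extension, the bound protein was detected with fluorescent anti-GST. E-scores, modified Wilcoxon-Mann-Whitney statistics, were given by the Universal PBM Analysis Suite to ungapped eight-base words pooled with their reverse complements after masliner normalisation.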

Row | Sequence | PBM E-score
1 | GGAGCCCA | -0.0712
2 | ACCGGGAA | 0.132
3 | GGGAGTAA | 0.0449
4 | CTATTCAA | -0.0852
5 | AGGGGTAC | -0.0627
6 | GTGACACA | 0.196
7 | AGCTTGGC | -0.278
8 | ACTCATTG | 0.196
9 | AGCACGCG | -0.00394
10 | AGTAGATG | 0.0735
11 | CAGGCCAC | 0.00274
12 | AGCTCCGA | -0.123
13 | CGGGCCCG | -0.047
14 | CCGCTAAG | -0.025
15 | CAGACGCG | -0.184
16 | TAAACCGA | 0.0002
17 | AGGGCCAT | -0.231
18 | AGCCCTGC | 0.0556
19 | GTTCGTCA | -0.0885
20 | CGTGGGGA | 0.0323
21 | CTAGGGCC | -0.208
22 | CCGATCAC | 0.0847
23 | TACGGCTA | -0.113
24 | ATCGGTTC | 0.00243
25 | AGCCTTCC | -0.317

Row | Sequence | PBM E-score
26 | CAGATGAG | 0.219
27 | GCAGGTGA | 0.119
28 | CTCATGTC | 0.107
29 | AACGGCTT | -0.235
30 | AGCCATGG | 0.281
31 | CAGCTAAG | -0.204
32 | CTGAAGTA | -0.0497
33 | ACAACGTG | 0.0397
34 | GGCTAGAC | -0.0958
35 | CGGCAACG | -0.121
36 | CTGCTTAA | -0.151
37 | CCAGTTAG | 0.0464
38 | CTGCCCAG | -0.167
39 | CTGCAAAG | -0.179
40 | GGGGAGCA | -0.12
41 | AACCGGAG | 0.12
42 | GCCGCCAC | -0.0771
43 | CGGTAATC | 0.105
44 | CTATCCTA | -0.155
45 | ATGGTTAG | 0.201
46 | CTCCACAC | 0.0336
47 | GCAAATCC | -0.072
48 | AGCATCCA | -0.0946
49 | ACTCATGG | 0.317
50 | AGGGGCTG | 0.0964

Row | Sequence | PBM E-score
51 | ATTTCTTC | -0.116
52 | GCCTGTTA | -0.0838
53 | AGATGAAG | -0.175
54 | GGCAACCA | 0.0446
55 | CCACCGCC | 0.163
56 | ATTTGGCA | -0.00549
57 | GAGACTCA | 0.36
58 | CCATTGCA | 0.0485
59 | CCGTAGCC | -0.0654
60 | ACTTACTG | 0.0822
61 | CAATTGAC | -0.0985
62 | CTCGAACA | 0.00089
63 | ACCGACCG | 0.0736
64 | AGTTCTAC | -0.219
65 | AGGGAGTC | 0.343
66 | AAGGTCGT | -0.0909
67 | AAAGCCTC | -0.257
68 | GGATACCA | 0.14
69 | GATACCGA | -0.0169
70 | GAGAGTAC | -0.182
71 | CTACGGAA | -0.13
72 | AACTTGAC | 0.0407
73 | CCCTGCAC | -0.0585
74 | GCATTAGA | -0.0512
75 | GCGCCGAC | 0.0249

Row | Sequence | PBM E-score
76 | AGTGGAGC | 0.00228
77 | ATAAATCA | 0.194
78 | TATGCCAA | 0.00701
79 | CCGGTGAA | -0.076
80 | CGGAGCTA | -0.0331
81 | AGGTGGCA | 0.0216
82 | AAGAGATC | -0.249
83 | CATCTACG | 0.141
84 | AGCCCCAC | 0.0558
85 | AAACTCGC | -0.0834
86 | CCACTTAA | -0.283
87 | ACAGTTGC | -0.102
88 | ATTTACCA | -0.0901
89 | CCGCTTCC | 0.0896
90 | AGGTGCTC | -0.245
91 | TACCTCGA | 0.0438
92 | CAGTAACG | -0.0249
93 | TCCCATAA | -0.0361
94 | AACACAGT | -0.0727
95 | GGGCTGGA | -0.0152
96 | CGTTCAAG | -0.247
97 | ACAGTGGC | 0.0105
98 | GCAGAGGA | -0.128
99 | AATGGTGT | 0.169
100 | ATATTTCC | 0.142

Row | Sequence | PBM E-score
101 | CCTGTCCC | -0.0752
102 | TATGCCGA | 0.129
103 | TGATCGAA | -0.00588
104 | GTCGGCGA | -0.0179
105 | CAGCTCAG | 0.0364
106 | AGGGCGGA | -0.12
107 | ACCAAGTG | -0.0218
108 | AGGGACTC | -0.0891
109 | CGTGTCCA | 0.0984
110 | AGAACCTG | -0.0729
111 | ATGTCGTA | -0.136
112 | GATTAAAC | -0.0636
113 | TAACGATA | 0.104
114 | CCCTTCAC | -0.219
115 | GGTTCGTA | 0.0419
116 | CTGCCGTA | -0.18
117 | GCACCATA | 0.0521
118 | TATCACAA | 0.0919
119 | CTTTTGTC | -0.138
120 | GGTCGAAA | -0.227
121 | GACCCTAC | 0.036
122 | AGGGCCTC | -0.168
123 | CGCGGTAA | 0.0767
124 | AAGGCTGT | -0.154
125 | GGTACTCA | 0.281

Row | Sequence | PBM E-score
126 | ATAGCGAT | 0.146
127 | TAGAGCAA | -0.16
128 | ATTCGAAG | -0.164
129 | AGCTAAAA | -0.222
130 | ATGGCATG | 0.123
131 | CATTTTAG | -0.0944
132 | CGCTCCAC | -0.125
133 | ACAGCCTC | -0.0546
134 | TCTTTACA | 0.0361
135 | GCTCGGCC | -0.174
136 | GCAAAGCA | -0.15
137 | CTATCGAC | -0.0919
138 | ACAGTACT | 0.0536
139 | CTCCCGTC | 0.0119
140 | AGGGCTCA | 0.0814
141 | AATCGGGA | -0.0677
142 | ACAAATTC | 0.0408
143 | CAATCGGC | -0.0799
144 | CCAAGCTC | -0.145
145 | CACAATAA | 0.0367
146 | CAGTATTC | -0.0143
147 | TGTGCCAA | 0.127
148 | GCCAAACA | 0.0896
149 | CCTGACAG | -0.0535
150 | GCCGCACC | 0.0812

Row | Sequence | PBM E-score
151 | CTGTACGC | 0.0548
152 | GCCGAAAA | -0.0398
153 | AGTCAACT | 0.144
154 | CTAGTGCA | -0.0181
155 | AAGTTCGA | -0.0835
156 | ATGCCTGC | -0.00581
157 | CTACGTAA | -0.105
158 | ATGGAGGC | -0.19
159 | CATACAGA | 0.153
160 | TATGGCAA | -0.16
161 | CCTATCTC | -0.0188
162 | CTGGAGCA | -0.0948
163 | GACGGCTC | -0.119
164 | AAATACCC | -0.0527
165 | AAGCTTGT | -0.049
166 | GCCGTCAA | -0.189
167 | CGAGCTTA | -0.103
168 | CCTGATCC | 0.124
169 | AGCGACAA | -0.136
170 | AAGGTTTG | -0.035
171 | CTTCTGCC | -0.136
172 | GTTTGGCA | -0.147
173 | CACGGGGG | -0.0342
174 | TGACCTCA | -0.11
175 | CTTGGCAA | -0.277

Row | Sequence | PBM E-score
176 | CAATGCTG | -0.0939
177 | GGAGTACA | 0.0826
178 | CAAAAGCG | 0.0566
179 | GGAATTCA | 0.0856
180 | ACAAAACT | -0.0403
181 | CGTCGTAC | -0.0401
182 | ACTGGAGC | -0.108
183 | GGCACGAA | 0.0919
184 | CAGATCTG | -0.00609
185 | AATTAAGT | -0.207
186 | CGACAAAC | -0.00285
187 | AATTCAGA | -0.128
188 | CCAGCAGA | 0.0731
189 | CTGCAAGC | -0.059
190 | CATCGGAG | -0.127
191 | CTGATCAA | -0.0933
192 | AATCTAGG | -0.0313
193 | ACAGTGTG | 0.142
194 | AGCGTGTA | -0.0491
195 | CCAAAAGG | -0.308
196 | GTTGATCA | 0.0765
197 | GAATAGAC | -0.152
198 | GTGGGTGA | 0.331
199 | ACTGATGA | 0.0606
200 | GAAACCGA | -0.0749

Row | Sequence | PBM E-score
201 | CCTCAATC | 0.0673
202 | ACATAATA | 0.186
203 | ACTTGGAA | 0.0755
204 | ATCTGGCA | -0.22
205 | CCAGACGA | 0.0274
206 | ACGGCAAG | -0.032
207 | AATGCCAC | -0.0244
208 | GTCGTATA | 0.0758
209 | AAGGAGCT | -0.303
210 | CTACATGC | -0.114
211 | ACATCGGC | -0.056
212 | GCATTCAC | -0.0931
213 | ACAATAGT | 0.14
214 | AAGAATAA | -0.182
215 | AACAGACG | -0.0627
216 | AAACTTCG | -0.32
217 | GCAAAGAC | -0.0646
218 | AGGGCTCC | -0.358
219 | GGGACATA | -0.0325
